These are yes or no findings as the source states them, for the method shown. In cells and extracts the contact can be indirect. Some entries that bind do so weakly or less than the wild type.
Assays:
[1] = biological target: human 5-HTR1E with a C-terminal Myc tag (human) (UniProt P28566); experiment: co-IP; called pull-down assay in the paper: HEK293 cells co-transfected with 5-HTR1E-myc and CPE-V5 or its fragments, 48 h; 1 mg lysate with anti-Myc or anti-V5-conjugated agarose overnight at 4°C; immunoblot with anti-V5 or anti-Myc
[2] = biological target: 5-HTR1E, endogenous in LN-18 glioblastoma cells (human (endogenous in LN-18)) (UniProt P28566); experiment: co-IP; endogenous proteins; 1 mg precleared LN-18 lysate (50 mM Tris-HCl, 150 mM NaCl, 5 mM EDTA, 0.5% NP-40) with anti-5-HTR1E polyclonal or anti-NF-α1/CPE monoclonal antibody, protein A/G-Sepharose, 4°C overnight; immunoblot for the other protein
[3] = biological target: NF-α1/CPE, endogenous in LN-18 glioblastoma cells (human (endogenous in LN-18)) (UniProt P16870); experiment: as above

The chains behind the UniProt entries cited, without tags or fusion partners. Where a name states a change or a piece, a line headed by the entry shows the natural chain unless it says otherwise. Residues count along the entry.
UniProt P28566: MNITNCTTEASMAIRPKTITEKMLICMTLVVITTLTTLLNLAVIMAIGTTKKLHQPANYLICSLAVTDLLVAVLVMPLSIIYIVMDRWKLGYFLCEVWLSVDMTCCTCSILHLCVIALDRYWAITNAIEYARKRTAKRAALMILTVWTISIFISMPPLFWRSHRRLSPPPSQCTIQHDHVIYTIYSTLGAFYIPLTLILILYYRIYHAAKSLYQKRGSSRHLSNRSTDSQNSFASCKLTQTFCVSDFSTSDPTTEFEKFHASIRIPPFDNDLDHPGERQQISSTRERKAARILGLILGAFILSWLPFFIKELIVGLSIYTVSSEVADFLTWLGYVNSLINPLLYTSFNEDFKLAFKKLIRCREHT
UniProt P16870: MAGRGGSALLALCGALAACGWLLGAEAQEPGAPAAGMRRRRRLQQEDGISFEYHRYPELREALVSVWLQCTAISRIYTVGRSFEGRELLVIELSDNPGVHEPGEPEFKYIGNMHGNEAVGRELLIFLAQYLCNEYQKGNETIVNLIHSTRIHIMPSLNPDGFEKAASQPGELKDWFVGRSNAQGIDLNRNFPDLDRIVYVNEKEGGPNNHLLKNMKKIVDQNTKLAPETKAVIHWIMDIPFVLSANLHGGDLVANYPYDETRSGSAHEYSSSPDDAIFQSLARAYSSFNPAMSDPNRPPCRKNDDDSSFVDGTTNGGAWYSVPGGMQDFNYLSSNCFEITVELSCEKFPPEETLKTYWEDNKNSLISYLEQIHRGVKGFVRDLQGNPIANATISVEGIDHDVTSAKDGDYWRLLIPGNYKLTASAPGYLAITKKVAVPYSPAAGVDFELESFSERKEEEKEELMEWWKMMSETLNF
NF-α1/CPE, endogenous in LN-18 glioblastoma cells (human (endogenous in LN-18)): residues 43-476 of P16870

binding [1]	further results	Substance
binds	–	NF-α1/CPE fragment 1–350 with a C-terminal V5 tag (from UniProt P16870 26-350) (domain or fragment)
–	binding [2]: binds	NF-α1/CPE, endogenous in LN-18 glioblastoma cells (from UniProt P16870 43-476)
no binding	–	NF-α1/CPE fragment 351–476 with a C-terminal V5 tag (from UniProt P16870 351-476) (domain or fragment)
no binding	–	NF-α1/CPE fragment 1–150 with a C-terminal V5 tag (from UniProt P16870 26-150) (domain or fragment)
–	binding [3]: binds	5-HTR1E, endogenous in LN-18 glioblastoma cells (from UniProt P28566 1-365) (receptor)
